# About 6,000 (1.7%) of roughly 360,000 compounds were called active. This list was built around the results that the source calls inconclusive (neither active nor inactive); the mix of calls is not that of the screen. Calls follow the shape of the dose curve; as a rule, active = well fitted cell-killing curve with a large enough effect; inconclusive = small, poorly fitted or top-dose-only effect, or effect the other way; inactive = flat fitted curve, though single readings scatter. Potencies of inconclusive entries are left out as doubtful fits.
# Assay: qHTS for induction of synthetic lethality in tumor cells producing 2HG: qHTS for the HT-1080-NT fibrosarcoma cell line;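 also: NT is the 2HG producing partner of a matched IDH1 knockdown line; nearly all actives have a fitted effect of over 55% in size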;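 as to activity, negative = less viability: 0% = DMSO-treated cells and -100% = media-only wells without cells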
# Details: HT-1080-NT fibrosarcoma viability, CellTiter-Glo ATP luminescence, 48 h; activity, negative = less viability: at 46.1 µM (top of the series) unless noted
# Outline: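 A 48-hour cytotoxicity screen used HT-1080-NT cells plated 2 hours before compound delivery. ATP-based CellTiter-Glo luminescence measured viability, normalized to DMSO and no-cell controls.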
# Potency is read from the fitted curve at half-maximal effect; tags tell the direction and shape of the fitted curve.
Structure (SMILES),"activity, negative = less viability",Potency
NC1=NC[C@H](Cc2ccc(O)cc2)N1CCCCC1CCCCC1,inactive: -24.4%,–
CCOc1cc(-c2ccccc2)nc2c1CN(S(=O)(=O)c1ccc(C)cc1)C(c1cccc(Cl)c1)C2 (stereo not given),–,"inconclusive [rising, single point]"
CCC[C@H]1CC(=O)C=C(c2ccc(OC)cc2)ON1C(=O)OC(C)(C)C,inactive: -12.7%,–
Cc1ccc(OCc2ccc(C(=O)NCc3cccnc3)cc2)cc1C,–,"inconclusive [cytotoxic, single point]"
COc1ccc(NC(=O)Cn2cnc3sc(C)c(S(=O)(=O)N4CCN(C)CC4)c3c2=O)cc1OC,inactive: 7.46%,–
C/C(CCCO)=N/Nc1ccc([N+](=O)[O-])cc1[N+](=O)[O-],–,"inconclusive [cytotoxic, partial curve]"
COc1cc(-c2noc(C)c2C#Cc2ccccn2)cc(OC)c1OC,–,active: 1.64 µM
CC(Oc1ccccc1F)C(=O)NNC(=O)Cc1ccc(S(=O)(=O)N2CCOCC2)s1 (stereo not given),inactive: 10.4%,–
Cc1ccc(CCNC(=O)CN(c2ccc(C)cc2)S(=O)(=O)c2c(C)noc2C)cc1,inactive: 3.99%,–
CCN(CC)CCCNC(=O)c1cc2nc3c(c(C(F)(F)F)n2n1)CCc1ccccc1-3,–,"inconclusive [cytotoxic, single point]"
CCOCCCNC(=S)N1CCCN(c2nc3cc(C)cc(C)c3cc2C#N)CC1,–,"inconclusive [cytotoxic, single point]"
COc1cc(/C=C/c2cc(C(F)(F)F)[nH]c(=O)n2)cc(OC)c1OC,–,"inconclusive [cytotoxic, partial curve]"
CCCCCn1c(CN2CCN(c3cccc(Cl)c3)CC2)nc2c1c(=O)[nH]c(=O)n2C,–,"inconclusive [cytotoxic, single point]"
O=C(Cc1cccs1)Nc1nnc(-c2ccncc2)s1,–,"inconclusive [cytotoxic, single point]"
Nc1nonc1-n1nnc(C(=O)N/N=C/c2ccccc2Cl)c1CN1CCOCC1,inactive: 6.87%,–
CC(O)CNCc1ccc(Cl)cc1Cl (stereo not given),inactive: 0.985%,–
O=C(Nc1ccc(S(=O)(=O)NCC2CCCO2)cc1)c1cccc(F)c1 (stereo not given),inconclusive: -14.9% [cytotoxic],–
CC(C)COP(=O)(OCC(C)C)C(Nc1ccccc1)c1ccc(F)cc1 (stereo not given),–,"inconclusive [cytotoxic, single point]"
CCCNC(=O)c1cc(-c2ccc(Br)cc2)on1,inconclusive: 23.1%,–
COc1cccc(S(=O)(=O)Nc2ccc(C(O)(C(F)(F)F)C(F)(F)F)cc2)c1,–,"inconclusive [cytotoxic, single point]"
